This is one part of the list. Sequences were assembled here from the parent chain. Values near 0.05 are background.
B1: TEV protease; numbered along this chain (parent)
chain: MGESLFKGPRDYNPISSSICHLTNESDGHTTSLYGIGFGPFIITNKHLFRRNNGTLVVQSLHGVFKVKDTTTLQQHLVDGRDMIIIRMPKDFPPFPQKLKFREPQREERICLVTTNFQTKSMSSMVSDTSCTFPSGDGIFWKHWIQTKDGQCGSPLVSTRDGFIVGIHSASNFTNTNNYFTSVPKNFMELLTNQEAQQWVSGWRLNADSVLWGGHKVFMVKPEEPFQPVKEATQL

Variants of: B1
Assay: raw area under fraction-flipped curve 0-4 h after induction (AUC4h, not background-subtracted), DNA-recorder readout of cleavage of the substrate (dimensionless); higher = more cleavage of the substrate by the protease variant
Conditions: temperature: 34 °C; time window: 0-4 h after rhamnose induction
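Also: Bxb1 expression induced with 0.2% (w/v) L-rhamnose at OD600 near 0.5, cultures sampled hourly, flipped fraction per protease–substrate barcode pair counted by paired-end Illumina sequencing.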

Row | Variant | area with substrate ENLYEQS | area with substrate ENLYHQS | area with substrate ENLYIQS | area with substrate ENLYKQS | area with substrate ENLYMQS | area with substrate ENLYNQS | area with substrate ENLYPQS | area with substrate ENLYSQS | area with substrate ENLYVQS | area with substrate ENLYWQS
1 | S32K | 0.0693 | 0.052 | 0.105 | 0.0851 | 0.0912 | 0.0653 | 0.0772 | 0.0917 | 0.0597 | 0.0783
2 | Y34L | 0.0578 | – | – | – | 0.0642 | – | 0.0564 | – | 0.11 | –
3 | G35K | 0.0437 | – | – | 0.0472 | – | – | – | – | – | 0.0466
4 | H62K | 0.0694 | 0.077 | – | – | 0.0909 | 0.0722 | 0.0722 | – | 0.117 | 0.0738
5 | V64M | 0.0519 | 0.0673 | 0.118 | 0.0881 | 0.104 | 0.0709 | 0.0699 | 0.0702 | 0.088 | 0.0952
6 | T72E | 0.0806 | 0.0599 | – | – | – | – | – | – | – | –
7 | M83F | 0.0516 | – | – | 0.0764 | 0.0712 | 0.0654 | 0.0727 | 0.0598 | – | 0.0608
8 | M88F | 0.066 | 0.0558 | – | 0.0814 | – | 0.0613 | 0.0674 | 0.0801 | 0.0913 | 0.0605
9 | T114H | 0.0618 | 0.0821 | 0.0956 | – | 0.0684 | – | – | 0.0932 | – | 0.0769
10 | T115G | 0.0657 | 0.0823 | – | 0.0531 | – | 0.0719 | 0.0646 | – | – | –
11 | N116C | 0.0746 | 0.0649 | – | 0.057 | 0.102 | 0.0645 | 0.0669 | – | – | –
12 | G136A | 0.068 | 0.0643 | 0.146 | 0.0544 | – | – | 0.0579 | – | 0.125 | 0.0685
13 | G138R | 0.0591 | 0.0756 | – | 0.0169 | 0.0669 | – | 0.0611 | – | – | –
14 | C152Q | 0.0609 | 0.0704 | – | 0.043 | – | – | – | – | – | –
15 | T159C | 0.0275 | – | – | – | – | 0.0712 | – | – | – | –
16 | R160F | 0.076 | 0.0726 | 0.143 | 0.0533 | 0.0912 | 0.0723 | 0.0896 | – | 0.15 | 0.153
17 | R160T | 0.0454 | 0.0674 | 0.163 | 0.0489 | 0.0833 | – | – | – | 0.106 | 0.0922
18 | H168R | 0.0678 | 0.063 | 0.0685 | 0.0668 | 0.0551 | 0.0644 | 0.0493 | – | 0.0624 | 0.0651
19 | T174L | 0.0656 | 0.0756 | – | 0.109 | 0.0629 | – | 0.111 | 0.0689 | 0.0977 | 0.0845
20 | E189K | 0.0664 | 0.0686 | – | – | 0.0625 | – | – | – | – | –
21 | E195Y | 0.0531 | – | – | 0.0599 | – | – | 0.0716 | – | – | –
22 | A207I | 0.0671 | 0.0716 | 0.0874 | – | – | 0.0588 | 0.0659 | – | – | –

Row | Variant | area with substrate ENLYEQS | area with substrate ENLYHQS | area with substrate ENLYIQS | area with substrate ENLYKQS | area with substrate ENLYMQS | area with substrate ENLYNQS | area with substrate ENLYPQS | area with substrate ENLYSQS | area with substrate ENLYVQS | area with substrate ENLYWQS
23 | D208C | 0.0258 | 0.0691 | 0.0722 | 0.0694 | 0.0627 | 0.0499 | – | – | – | 0.0828
24 | S209P | 0.0716 | 0.0616 | 0.0738 | 0.0377 | – | 0.0828 | 0.0708 | 0.0649 | 0.121 | –
25 | K216C | 0.0677 | – | – | – | – | – | – | – | – | –
26 | F218R | 0.0701 | 0.0672 | 0.0885 | 0.0643 | – | – | – | – | 0.0704 | –
27 | E224I | 0.0597 | 0.0593 | – | 0.0418 | 0.0838 | 0.0779 | – | – | – | –
28 | F226D | 0.0684 | – | – | 0.0414 | 0.0899 | 0.0667 | 0.0642 | – | 0.11 | –
29 | A232Y | 0.0579 | 0.0856 | 0.15 | – | – | 0.0723 | 0.0771 | – | – | 0.0581
30 | G8C | – | – | 0.0916 | – | 0.0855 | – | – | 0.0696 | – | 0.0746
31 | K46N | – | 0.0612 | – | 0.0568 | – | 0.0625 | – | 0.0879 | – | –
32 | V58P | – | – | – | 0.0233 | 0.0289 | – | – | 0.0157 | – | 0.0206
33 | P104A | – | 0.0563 | 0.119 | – | – | 0.0645 | 0.0673 | 0.0782 | 0.113 | 0.0863
34 | S121T | – | 0.095 | – | 0.0579 | 0.0921 | 0.0756 | – | – | – | –
35 | D149R | – | – | – | 0.0642 | 0.0767 | 0.0501 | – | – | – | –
36 | C152Y | – | 0.0815 | 0.0564 | 0.0798 | – | 0.054 | – | 0.0717 | 0.0563 | –
37 | N186Y | – | 0.0615 | – | 0.0769 | – | – | – | – | – | 0.0794
38 | N193S | – | – | 0.112 | – | – | – | – | 0.0683 | – | –
39 | Q197Y | – | 0.0662 | – | 0.0712 | – | 0.0517 | – | 0.0687 | – | –
40 | G35E | – | 0.0476 | 0.0529 | – | 0.0333 | 0.0513 | – | 0.0391 | – | –
41 | R106K | – | 0.116 | – | – | 0.098 | 0.0685 | – | – | – | 0.111
42 | T119E | – | 0.0511 | – | 0.0569 | 0.0661 | 0.056 | 0.0864 | 0.11 | – | –
43 | V200G | – | 0.0599 | – | – | 0.0574 | – | 0.0596 | – | 0.0852 | 0.0457

Same assay, conditions: temperature: 34 °C; time window: 0-4 h after rhamnose induction

Row | Variant | area with substrate ENLYGQS | area with substrate ENLYLQS | area with substrate ENLYRQS | area with substrate ENLYTQS | area with substrate ENLYQQS | area with substrate ENLYYQS
44 | Y34L | 0.0793 | 0.0534 | 0.0555 | 0.0617 | – | –
45 | G35K | – | – | – | – | 0.0651 | –
46 | H62K | 0.0545 | – | – | – | – | –
47 | V64M | 0.0631 | 0.0049 | 0.0659 | 0.0812 | 0.0589 | –
48 | T72E | – | 0.0922 | – | – | 0.0645 | –
49 | M88F | 0.0608 | – | – | – | – | –
50 | T114H | 0.0653 | – | – | – | – | –
51 | N116C | – | – | 0.0702 | – | – | 0.0641
52 | G136A | 0.0655 | 0.0754 | – | 0.0498 | 0.061 | 0.0628
53 | G138R | – | 0.0651 | 0.0604 | – | – | 0.0593
54 | C152Q | – | – | 0.0556 | – | – | –
55 | T159C | 0.0598 | – | – | – | – | –
56 | R160F | 0.0399 | – | 0.0563 | 0.0855 | 0.0729 | 0.0965
57 | R160T | 0.0766 | – | – | – | – | –
58 | H168R | – | 0.0546 | 0.0462 | 0.0623 | 0.0267 | 0.0778
59 | T174L | – | – | – | – | 0.0614 | –
60 | E189K | – | – | 0.0628 | 0.0832 | 0.0504 | 0.0449
61 | E195Y | 0.0629 | – | 0.059 | 0.0856 | – | 0.0539
62 | A207I | 0.0741 | 0.101 | 0.0428 | 0.0866 | 0.0618 | –
63 | D208C | 0.0655 | – | 0.0614 | – | 0.0577 | –

Row | Variant | area with substrate ENLYGQS | area with substrate ENLYLQS | area with substrate ENLYRQS | area with substrate ENLYTQS | area with substrate ENLYQQS | area with substrate ENLYYQS
64 | S209P | 0.0668 | – | – | – | 0.0552 | –
65 | K216C | 0.0773 | – | – | – | – | –
66 | F218R | 0.0716 | – | – | – | – | –
67 | E224I | 0.0664 | 0.0664 | 0.0545 | 0.0807 | 0.0712 | –
68 | F226D | 0.067 | – | 0.0627 | – | – | –
69 | A232Y | 0.0552 | – | 0.0525 | 0.0777 | 0.07 | –
70 | G8C | 0.0502 | – | – | – | 0.0615 | –
71 | K46N | 0.0608 | – | 0.0739 | – | – | 0.0701
72 | V58P | 0.0198 | – | – | – | – | –
73 | P104A | 0.0606 | – | 0.0616 | – | 0.068 | –
74 | S121T | 0.058 | – | – | – | – | 0.0691
75 | D149R | 0.0665 | – | – | – | – | –
76 | C152Y | 0.0548 | – | – | – | 0.0575 | –
77 | N186Y | 0.066 | – | – | – | – | 0.0877
78 | N193S | 0.0644 | 0.0831 | 0.0563 | – | – | –
79 | Q197Y | 0.0618 | – | – | – | – | –
80 | G35E | – | 0.0471 | – | – | – | 0.0317
81 | R106K | – | 0.0679 | – | – | – | –
82 | T119E | – | – | 0.0783 | – | 0.0622 | 0.0635
83 | V200G | – | – | – | – | – | 0.0566

Reference: the supplement of paper PMC12217912
